Measurements as given in PubChem BioAssay AID624296 (National Center for Advancing Translational Sciences (NCATS), 2012).
About 9,900 (2.8%) of roughly 350,000 compounds were called active. This list was built around the results that the source calls inconclusive (neither active nor inactive); the mix of calls is not that of the screen. Calls follow the shape of the dose curve; as a rule, active = well fitted activation curve with a large enough effect; inconclusive = small, poorly fitted or top-dose-only effect; inactive = no such curve, though single readings can be large or run the other way. Potencies of inconclusive entries are left out as doubtful fits.
Potency is read from the fitted curve at half-maximal effect; tags tell the direction and shape of the fitted curve.

Test: A quantitative high throughput screen for small molecules that induce DNA re-replication in MCF 10a normal breast cells. Also: nearly all actives have a fitted effect of over 50% in size.
Details: MCF 10A DNA re-replication, Hoechst nuclear intensity, 48 h; series mostly up to 46.1 µM
In the case of `CCCCNC(=O)/C(=C\c1ccc([N+](=O)[O-])o1)NC(=O)c1ccccc1`, the Potency is reported as “inactive”. For `Cc1nnc(SCC(=O)Nc2nsc(-c3ccc(C(C)(C)C)cc3)n2)s1`, the Potency was “inactive”. With `COc1ccccc1/C=N\Nc1cc(C)nc(-n2nc(C)cc2C)n1` the Potency was inconclusive [activator, single point]. In the case of `CCOC(=O)C1Cc2ccccc2CN1` (stereo unspecified), the Potency is reported as inconclusive [activator, single point]. With `CCS(=O)(=O)c1ccc(C=NNc2nc3ccccc3o2)cc1` the Potency was “inactive”. With `Nc1nc(Nc2ccccc2)nc(NC2CCCCC2)c1[N+](=O)[O-]` the Potency was inconclusive [activator, single point]. For `Cc1cc(C(=O)N/N=C/c2sccc2C)no1`, the Potency was “inactive”. For `CCN(CC)CCCN(C(=O)c1ccccc1C)c1nc(-c2ccc(OC)cc2)cs1`, the Potency was “inactive”. In the case of `O=C(CSc1ccc2nnc(-c3ccccn3)n2n1)Nc1ccccc1`, the Potency is reported as inconclusive [activator, partial curve, poor fit]. For `N/C(=N\OC(=O)Cc1ccccc1[N+](=O)[O-])c1ccc(Br)cc1`, the Potency was inconclusive [activator, partial curve, poor fit]. In the case of `Oc1c(C(Nc2cccc(C(F)(F)F)c2)c2ccncc2)ccc2cccnc12` (stereo unspecified), the Potency is reported as inconclusive [activator, single point]. For `O=C(c1ccc(=O)[nH]n1)N1CCN(S(=O)(=O)c2ccc3ccccc3c2)CC1`, the Potency was “inactive”. With `CN(C)c1nc(N)nc(-c2cccnc2)n1` the Potency was “inactive”. In the case of `O=C(Nc1ccccc1)c1cc(S(=O)(=O)NCc2ccncc2)ccc1Cl`, the Potency is reported as inconclusive [activator, single point]. In the case of `CCN(CC)c1ccc(/C=N/N2CCOCC2)c(O)c1`, the Potency is reported as inconclusive [activator, single point]. With `COc1ccc(OC)c(/C=N/NC(=O)c2cccc3ccccc23)c1` the Potency was inconclusive [activator, full curve, poor fit]. In the case of `Cc1ccc(-c2nc(CS(=O)CC(=O)NC3CCCC(C)C3C)c(C)o2)cc1` (stereo unspecified), the Potency is reported as “inactive”. In the case of `Nc1nc(CSc2nc3ccccc3s2)nc(N2CCCCC2)n1`, the Potency is reported as inconclusive [activator, single point]. For `Cc1ccc(C)c(N2CCN(CCCNC(=O)CCn3c(=O)c4cccn4c4cccnc43)CC2)c1`, the Potency was inconclusive [activator, partial curve, poor fit]. For `CC1Cc2nc(SCC(=O)Nc3ccc4c(c3)OCO4)n(Cc3ccccc3)c(=O)c2S1` (stereo unspecified), the Potency was inconclusive [activator, single point]. With `COc1ccccc1CNC(=O)CCN=C1NS(=O)(=O)c2ccccc21` the Potency was “inactive”. In the case of `COc1ccc(Nc2ncnc3ccc(Br)cc23)cc1OC`, the Potency is reported as inconclusive [activator, single point]. For `O=[N+]([O-])c1ccc(Oc2cccnc2)c([N+](=O)[O-])c1`, the Potency was active: 5.8 µM. In the case of `C/C(=N\Nc1ccc([N+](=O)[O-])cc1)c1ccc2c(c1)OCO2`, the Potency is reported as inconclusive [activator, full curve]. For `CCCc1ncc(C(O)c2ccc(OC)cc2)n1C` (stereo unspecified), the Potency was inconclusive [activator, single point]. In the case of `CCOC(=O)C1=C(CSCc2ccccc2)NC(=O)NC1c1cc(C)ccc1C` (stereo unspecified), the Potency is reported as inconclusive [activator, single point]. For `O=[N+]([O-])c1cccc(SSc2cccc([N+](=O)[O-])c2)c1`, the Potency was inconclusive [activator, single point]. For `Cc1ccc(CNC(=O)CSc2nc(N3CCCCC3)nc(N3CCCCC3)n2)cc1`, the Potency was inconclusive [activator, single point]. With `COc1cc(C(F)(F)F)c(C(=O)NCc2cccc(Cl)c2)cn1` the Potency was “inactive”. In the case of `COc1ccc(C(CNC(=O)CSc2ccc(Br)cc2C)N2CCOCC2)cc1` (stereo unspecified), the Potency is reported as “inactive”. With `COc1ccc(C(CCNCc2ccc(N(C)C)cc2)C(C)C)cc1` (stereo unspecified) the Potency was inconclusive [activator, single point]. In the case of `COc1ccc(/C=N\NC(=O)c2ccccc2)cc1COc1ccccc1`, the Potency is reported as inconclusive [activator, partial curve, poor fit]. In the case of `COc1cc(/C=N/N=C2\CC3CCC2(C)C3(C)C)ccc1O` (stereo unspecified), the Potency is reported as inconclusive [activator, partial curve, poor fit]. For `CC(C)C(NC(=O)CCNC(=O)c1ccccc1Cl)c1nc2ccccc2[nH]1` (stereo unspecified), the Potency was “inactive”. For `O=C(N/N=C/c1cccc2ccccc12)c1cc(C2CC2)[nH]n1`, the Potency was “inactive”. In the case of `O=C(CN1CCN(Cc2ccccc2Cl)C1=O)NCC1CCCO1` (stereo unspecified), the Potency is reported as “inactive”. For `COc1nc(-c2ccccc2)cc(-c2ccc3c(c2)OCO3)c1C#N`, the Potency was inconclusive [activator, full curve, poor fit]. In the case of `O=C(CCc1c[nH]c2ccccc12)OCc1cccc(C(F)(F)F)c1`, the Potency is reported as inconclusive [activator, single point]. With `CCN(CC)C(=O)CSc1nnc(-c2ccccn2)n1Cc1ccccc1` the Potency was “inactive”. With `CC(C)N(Cc1ccccc1)C(=O)CCS(=O)(=O)c1ccc2c(c1)oc(=O)n2C` the Potency was “inactive”. In the case of `CN(CCN1CCOCC1)Cc1nc(-c2ccc(Cl)cc2)no1`, the Potency is reported as inconclusive [activator, single point]. In the case of `COc1ccc(CCNC(=O)c2ccc(-c3cccc([N+](=O)[O-])c3)o2)cc1OC`, the Potency is reported as inconclusive [activator, partial curve, poor fit]. For `Cc1sc(NC(=O)/C=C/C(=O)O)c(C(N)=O)c1-c1ccc(C(C)(C)C)cc1`, the Potency was active: 20.6 µM. In the case of `CC(=O)Nc1ccc(S(=O)(=O)NCC2CCC(C(=O)NCCCN(C)Cc3ccccc3)CC2)cc1` (stereo unspecified), the Potency is reported as inconclusive [activator, partial curve, poor fit]. For `O=C(CN(Cc1ccco1)C(=O)Cn1nnc(-c2cccs2)n1)NCC1CCCO1` (stereo unspecified), the Potency was “inactive”. For `CCc1cc(=O)oc2cc(C)cc(OC(C)C(=O)NC(Cc3c[nH]c4ccc(O)cc34)C(=O)O)c12` (stereo unspecified), the Potency was inconclusive [activator, full curve, poor fit].
